Measurements published in the RNAGym collection of RNA variant scans (doi:10.1093/nar/gkz1192).
The source gives no read counts; variants with many changes may rest on few reads.

B1: CPEB3 Ribozyme (parent)
chain: UAACAGGGGGCCACAGCAGAAGCGUUCACGUCGCAGCCCCUGUCAGAUUCUGGUGAAUCUGCGAAUUCUGCUGUAUAUCUC

Variants of: B1
Experiment: self-cleavage, relative activity (ratio to wild type); higher = more cleavage; in vitro, sequencing
Outline: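 Barcoded CPEB3 ribozyme mutants, produced by rounds of error-prone PCR, self-cleaved while being transcribed with T7 RNA polymerase for 5 hours at 37°C and during a subsequent 15 min DNase I step before EDTA was added. Sequencing of template-switched cDNA on Illumina gave cleaved and total reads, and DNA sequencing assigned barcodes to variants. Each variant's relative activity is its cleaved/total read fraction divided by the unmutated ribozyme's fraction, averaged across three batches. A variant needed a minimum of 5 reads.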

Row | Variant | self-cleavage
1 | UAACAGGGGGCCACAGCAGUAGCGUUCACGCCGCAGCCCCUGUCUGAUUCUGGUGAAUCUGCGAAUUCUGCUGUAUAUCUC [A20U U31C A45U] | 0.24
2 | UAACAGGGGGCCACAGCAGUAGCGUUCACGCCGCAGCCCCUGUCAUAUUCUGGUGAAUCUGCGUAUUCUGCUGUAUAUCUC [A20U U31C G46U A64U] | 0.13
3 | UAACAGGGGGCCACAGCAGUAGCGUUCACGCCGCAGCCCCUGUCAGAUUCUGGUGAAUCUGCGAAUUCUGCUGUACAUCUC [A20U U31C U76C] | 0.35
4 | UAACAGGGGGCCACAGCAGUAGCGUUCACGUCGCAGCCCCAGUCAGAUUCUGGUGGAUCUGCGAAUUCUGCUGUAUACCUC [A20U U41A A56G U78C] | 0.06
5 | UAACAGGGGGCCACAGCAGUAGCGUUCACGUCGCAGCCCCAGUCAGAUUCUGGUGAAUCUGGGAAUUCAGCUGGAUAUCCC [A20U U41A C62G U69A U74G U80C] | 0.09
6 | UAACAGGGGGCCACAGCAGUAGCGUUCACGUCGCAGCCCCAGUCAGAUUCUGGUGAAUCUGCGAACUCUGCUGUAUAUCUC [A20U U41A U66C] | 0.21
7 | UAACAGGGGGCCACAGCAGUAGCGUUCACGUCGCAGCCCCCGUCAGAUUCUGGUGAUUCUGCGAAUUCUGCUGUAUAUCUC [A20U U41C A57U] | 0.21
8 | UAACAGGGGGCCACAGCAGUAGCGUUCACGUCGCAGCCCCCGUUAGAUUCUGGUGAAUCUGCGAGUUCAGCUGUAUAUCUC [A20U U41C C44U A65G U69A] | 0.06
9 | UAACAGGGGGCCACAGCAGUAGCGUUCACGUCGCAGCCCCCGUCAGAUUCUGGUGAAUCUGCGAAUUCUGCUGUAUAUCUU [A20U U41C C81U] | 0.34
10 | UAACAGGGGGCCACAGCAGUAGCGUUCACGUCGCAGCCCCCGUCAGAUUCUGGUGAAUCCGCGAGUUCUGCUGUAUAUCUC [A20U U41C U60C A65G] | 0.37
11 | UAACAGGGGGCCACAGCAGUAGCGUUCACGUCGCAGCCCCUGACGGAUUCUGGUGGAUCUGCGAAUUCUGCCGUAUAUCUC [A20U U43A A45G A56G U72C] | 0.17
12 | UAACAGGGGGCCACAGCAGUAGCGUUCACGUCGCAGCCCCUGACAGAUUCAGGUGAAUCUGCGAAUUCUGCUGUAUAUCUU [A20U U43A U51A C81U] | 0.49
13 | UAACAGGGGGCCACAGCAGUAGCGUUCACGUCGCAGCCCCUGACAGAUUCUGGUGAAUCUGCGAAUUCUGCCGUAUAUCUC [A20U U43A U72C] | 0.19
14 | UAACAGGGGGCCACAGCAGUAGCGUUCACGUCGCAGCCCCUGCCCGAUUCUGGUGAAUCUGCGAAUUCUGCUGUAUAUCCC [A20U U43C A45C U80C] | 0.24
15 | UAACAGGGGGCCACAGCAGUAGCGUUCACGUCGCAGCCCCUGCCAGACUCUGGUCAAUCUGCGAAUUCUGCUGUAUAUCUC [A20U U43C U48C G55C] | 0.13
16 | UAACAGGGGGCCACAGCAGUAGCGUUCACGUCGCAGCCCCUGCCAGAUUCCGGUGAAUCAGCGAAUUCUGCUGCAUAUCUC [A20U U43C U51C U60A U74C] | 0.17
17 | UAACAGGGGGCCACAGCAGUAGCGUUCACGUCGCAGCCCCUGCCAGAUUCUGGCGAAUCUGCGAAUUCAGCUGUAUAUCUC [A20U U43C U54C U69A] | 0.09

Row | Variant | self-cleavage
18 | UAACAGGGGGCCACAGCAGUAGCGUUCACGUCGCAGCCCCUGCCAGAUUCUGGUGAAUCUGCGAAUUCAGACGUAUAUCUC [A20U U43C U69A C71A U72C] | 0.11
19 | UAACAGGGGGCCACAGCAGUAGCGUUCACGUCGCAGCCCCUGUCAGAAUCUGGAGAAUCUGCGAAUUCUGCUGUAUAUCUC [A20U U48A U54A] | 0.2
20 | UAACAGGGGGCCACAGCAGUAGCGUUCACGUCGCAGCCCCUGUCAGAAUCUGGUGAAUCCGCGAAUUCUGCUGUAUAUCUC [A20U U48A U60C] | 0.15
21 | UAACAGGGGGCCACAGCAGUAGCGUUCACGUCGCAGCCCCUGUCAGACUCUGGUGAAUCUGCGAAUUCCGCUGUAUAUCAC [A20U U48C U69C U80A] | 0.17
22 | UAACAGGGGGCCACAGCAGUAGCGUUCACGUCGCAGCCCCUGUCAGACUCUGGUGAAUCUGCGAAUUCUGCUGUAUACCUC [A20U U48C U78C] | 0.12
23 | UAACAGGGGGCCACAGCAGUAGCGUUCACGUCGCAGCCCCUGUCAGAUACUGGUGAAUCUGCGAAUUCAGCUGUAUAUCUC [A20U U49A U69A] | 0.1
24 | UAACAGGGGGCCACAGCAGUAGCGUUCACGUCGCAGCCCCUGUCAGAUUCAGGUGAGUCUGCGAAUUCCGCUGUAUAUCUC [A20U U51A A57G U69C] | 0.11
25 | UAACAGGGGGCCACAGCAGUAGCGUUCACGUCGCAGCCCCUGUCAGAUUCAGGUGAAUCUGCGAAUUCUGCUGUUUAUUUC [A20U U51A A75U C79U] | 0.19
26 | UAACAGGGGGCCACAGCAGUAGCGUUCACGUCGCAGCCCCUGUCAGAUUCAGGUGAAUCUGCGAACUCUGCUGUAUAUCUC [A20U U51A U66C] | 0.22
27 | UAACAGGGGGCCACAGCAGUAGCGUUCACGUCGCAGCCCCUGUCAGAUUCCGGUGAAUCCGCGAAUUCUGCUGUAUAUCUC [A20U U51C U60C] | 0.21
28 | UAACAGGGGGCCACAGCAGUAGCGUUCACGUCGCAGCCCCUGUCAGAUUCUGGAGAAUCAGCGAAUUCUGCUGUAUAUCUC [A20U U54A U60A] | 0.23
29 | UAACAGGGGGCCACAGCAGUAGCGUUCACGUCGCAGCCCCUGUCAGAUUCUGGUGAAUCAGUGAAUCCUGCUGCAUAUCUC [A20U U60A C62U U67C U74C] | 0.08
30 | UAACAGGGGGCCACAGCAGUAGCGUUCACGUCGCAGCCCCUGUCAGAUUCUGGUGAAUCCGCGAGUUCUGCUGUAUAUCUC [A20U U60C A65G] | 0.14
31 | UAACAGGGGGCCACAGCAGUAGCGUUCACGUCGCAGCCCCUGUCAGAUUCUGGUGAAUCUGCGAAUACUGCAGUAUAUCUC [A20U U67A U72A] | 0.78
32 | UAACAGGGGGCCACAGCAGUAGCGUUCACGUCGCAGCCCCUGUCAGAUUCUGGUGAAUCUGCGAAUGCCGCUGUAUAUCUC [A20U U67G U69C] | 0.17
33 | UAACAGGGGGCCACAGCAGUAGCGUUCACGUCGCAGCCCCUGUCAGAUUCUGGUGAAUCUGCGAAUUCUGCGGUAUAUCAC [A20U U72G U80A] | 0.19
34 | UAACAGGGGGCCACAGCAGUAGCGUUCACGUCGCAGCCCCUGUCAGAUUCUGGUGAAUCUGCGAAUUCUGCUGCAUAUCUU [A20U U74C C81U] | 0.62
